The term EC50 denotes the concentration needed to bring the measured effect to its halfway point.

The text below walks through data of patent US20240101686A1 (SIMCERE ZAIMING PHARMACEUTICAL, published 2024).

Assay [1] has as its target T1, human EGFR on cells (human, UniProt P00533).
The target of assay [2] is T2, human EGFR-His-tagged fusion protein (human, UniProt P00533 fragment).
T2 construct: extracellular domain; bought; also called human EGFR protein; human EGFR-His protein

Assay [3] concerns the target T2, human EGFR-His-tagged fusion protein. This is another data set of the same source.
The target is the same in assay [4]. This is another data set of the same source.
The target is the same in assay [5]. This is another data set of the same source.
For assay [6] the target is unchanged. The source holds these as a separate data set.
For assay [7] the target is unchanged. This is another data set of the same source.
Assay [8] has as its target T1, human EGFR on cells. This is another data set of the same source.
In assay [9] the target is T2, human EGFR-His-tagged fusion protein. This is another data set of the same source.
Assay [10] has the same target. This is another data set of the same source.
Assay [11] concerns the target T3, monkey EGFR protein (commercial, SB, catalog number 90285-C08H) (monkey).
T3 construct: Bought protein used to coat ELISA plates
Kind of assay: ELISA, coated monkey EGFR protein, antibody 0 nM (blank).

Assay [12] deals with T3, monkey EGFR protein (commercial, SB, …). Put plainly: ELISA, coated monkey EGFR protein, antibody 0.01 nM. On the technique in general: An ELISA detects its analyte on a solid surface through an enzyme-linked reagent.
The target is the same in assay [13]. Kind of assay: ELISA, coated monkey EGFR protein, antibody 0.1 nM.
For assay [14] the target is unchanged. Put plainly: ELISA, coated monkey EGFR protein, antibody 0.001 nM.
The target is the same in assay [15]. Kind of assay: ELISA, coated monkey EGFR protein, antibody 100 nM.
For assay [16] the target is unchanged. Kind of assay: ELISA, coated monkey EGFR protein, antibody 0.0001 nM.
Assay [17] shares this target. Put plainly: ELISA, coated monkey EGFR protein, antibody 1 nM.
Assay [18] has as its target T4, cynomolgus monkey EGFR on HEK293T-monkey EGFR cells (cynomolgus monkey, UniProt P55245 (rhesus entry)). Kind of assay: FACS, HEK293T-monkey EGFR cells. (In general: In flow cytometry, cells or beads pass a laser one at a time.)
The target of assay [19] is T4, cynomolgus monkey EGFR on …. Put plainly: FACS, HEK293T-monkey EGFR cells (specificity assay).
Assay [20] has as its target T3, monkey EGFR protein (commercial, SB, …). Kind of assay: ELISA, coated monkey EGFR protein, antibody 10 nM.

Read-outs that look alike come from different tables or passages of the source.

B1: S008-NB149-9 (Fc fusion)
chain: QVQLVESGGFVQAGGSLRLSCAASGRTFSKYAMGWFRQAPGKEREFVAAIRWIGGSTYYADSVKGRFTISRDNDKNTLYLQMNSLKPEDTAVYYCAAGYQAYPEPPWEYDYWGQGTQVTVSS[human IgG1 Fc with changes not shown]
notes: VHH-Fc (VHH, human IgG1 hinge, human IgG1 Fc)
For the molecule B1, the results for the EC50 with human EGFR on cells [1] and with human EGFR on cells [8] were 0.26 nM and 1.5 nM, respectively. In addition, the “Max MFI” value in the assay with human EGFR on cells [1] was 3960; in the assay with human EGFR on cells [8], 32900. Moreover, the OD450 in assay [2] stood at 0.43; in assay [3], 1.94; in [4], 1.44; in [5] it was 0.09; in [6], 1.77; in assay [7], 0.13. In addition, the OD450 turned out to be 1.84 in [9] and 0.06 in [10].

B2: S008-NB149-15 (Fc fusion)
chain: QLQLVESGGGLVRPGGSLRLSCAASGSIFSRSGATWYRQAPGKQRELVALLTRDGHTDYPVVSVKGRFTISKDNAKNTVYLQMNSLQPEDTAVYYCNAIPPLGSWGRGTQVTVSS[human IgG1 Fc with changes not shown]
notes: as for B1
As for B2, the EC50 turned out to be 5.38 nM in the assay with human EGFR on cells [1] and 16.4 nM in the assay with human EGFR on cells [8]. Besides, the “Max MFI” value in the assay with human EGFR on cells [1] came to 18800; with human EGFR on cells [8], 35200. Besides, the OD450 in [2] amounted to 1.05; in assay [3] it was 2.47; in assay [4] it was 2.14; in assay [5], 0.23; in assay [6], 2.35; in assay [7], 0.24. Besides, the OD450 in assay [9] came to 2.71; in [10], 0.09.

B3: S008-NB149-60 VHH-Fc antibody (Fc fusion)
chain: QLQLVESGGGLVQPGGSLRLSCAASRSISSINTMTWYRYQGPGKERELVALITLGGTTNYADSVKGRFTISRDDAKNTLYLEMNSLKPEDTAVYYCNAVPPFRWGQGTQVTVSS[human IgG1 Fc with changes not shown]
notes: VHH fused to human IgG1 hinge and Fc; also called S008-NB149-0
In the case of B3, the OD450 in assay [11] is 0.06; in assay [12], 0.73; in [13], 1.82; in [14], 0.15; in assay [15] it was 2.47; in assay [16], 0.06. Further, the OD450 in [17] came out at 2.2; in [20], 2.35. In [18], this molecule had an EC50 of 2.68 nM. For the same molecule, the “Max MFI” value in [18] worked out at 14100. The same molecule returned a Max_MFI in [19] of 8310.

B4: S008-NB148-9 (Fc fusion)
chain: EVQLVESGGGLVQAGGSLRLSCAASGSTLSSYAMGWYRQAPGKQRELVAAISSGGGSTNYRDSVKGRFTISRDNAKNTVYLQMNSLKPEDTAVYYCKSTDYGSLFDSWGQGTQVTVSS[human IgG1 Fc with changes not shown]
notes: as for B1
Turning to B4, the values for the EC50 in the assay with human EGFR on cells [1] and with human EGFR on cells [8] were 2.37 nM and 8.77 nM, respectively. The “Max MFI” value is 15800 in the assay with human EGFR on cells [1] and 28900 in the assay with human EGFR on cells [8]. The OD450 stood at 0.95 in assay [2]; 2.76 in assay [3]; 2.27 in assay [4]; 0.21 in [5]; 2.55 in [6]; 0.05 in assay [7]. The OD450 was 2.94 in assay [9] and 0.07 in [10].

B5: S008-NB149-12 (Fc fusion)
chain: QVQLVESGGGLVQPGGSLRLSCVVSESISVINAMTWYRQAPGKQRELVALISRGGSTNYADSVKGRFTISRDNAKNSVYLQMNSLKPEDTALYYCNVVPPLGSWGQGTQVTVSS[human IgG1 Fc with changes not shown]
notes: as for B1
On to B5, for which the EC50 turned out to be 87.7 nM with human EGFR on cells [1] and 69.5 nM with human EGFR on cells [8]. The “Max MFI” value is 41100 with human EGFR on cells [1] and 21400 with human EGFR on cells [8]. Moreover, the OD450 in assay [2] was 0.57; in assay [3], 1.95; in assay [4], 1.7; in assay [5], 0.11; in assay [6], 2.06; in assay [7], 0.07. The OD450 in [9] was 2.22; in [10], 0.04.

B6: S008-NB148-13 (Fc fusion)
chain: EVQVVESGGGLVQPGGSLRLSCAASDDISSIYTMAWYRQAPGKQRELVALVTPGGGTNYADSVKGRFTISRDNAKNTVYLQMNSLKPEDTAVYYCNARHRVTGFAYWGQGTQVTVSS[human IgG1 Fc with changes not shown]
notes: as for B1
B6: the EC50 in the assay with human EGFR on cells [1] worked out at 1.63 nM; with human EGFR on cells [8], 2.24 nM. The “Max MFI” value with human EGFR on cells [1] stood at 15900; with human EGFR on cells [8], 37000. For the same molecule, the OD450 in assay [2] worked out at 0.77; in [3], 2.5; in [4], 1.44; in assay [5], 0.18; in assay [6], 2.42; in assay [7], 0.05. For the same molecule, the values for the OD450 in assay [9] and in [10] were 2.65 and 0.06, respectively.

B7: S008-NB149-22 (Fc fusion)
chain: QVQLVESGGGLVQAGGSLRLSCVASGRFPSIYRMAWFRQAPGKERDFVAAINWGGTATYYEDSVKGRFTISRDNTKNTVWLQMNSLKPEDTAVYYCAAGTGTTYTPQRGDAYGYWGQGTQVTVSS[human IgG1 Fc with changes not shown]
notes: as for B1
Regarding B7, the “Max MFI” value with human EGFR on cells [1] came out at 12200; with human EGFR on cells [8] it was 3190. Moreover, the OD450 amounted to 0.42 in assay [2]; 2.17 in [3]; 1.52 in assay [4]; 0.09 in [5]; 1.96 in assay [6]; 0.05 in [7]. Further, the OD450 in assay [9] came out at 2.27; in assay [10] it was 0.04.

B8: S008-NB148-69 (Fc fusion)
chain: EVQVVESGGGLVQAGGSLRLSCAASTITISSAGVSWYRQAPGKQRELVAIITRGGSTNYADSVKGRFTISRDNAKNTHYLQMYNLKPEDTGIYYCNVVPPTYWGQGTQVTVSS[human IgG1 Fc with changes not shown]
notes: as for B1
Turning to B8, the half-maximal effective concentration (EC50) in the assay with human EGFR on cells [1] stood at 8.89 nM; with human EGFR on cells [8], 116 nM. Besides, the “Max MFI” value with human EGFR on cells [1] turned out to be 13200; with human EGFR on cells [8], 23100. For the same molecule, the OD450 in assay [2] came out at 0.72; in [3], 2.59; in [4] it was 2.11; in [5], 0.14; in [6], 2.49; in assay [7] it was 0.06. Further, the OD450 in assay [9] turned out to be 2.86; in assay [10] it was 0.06.

B9: S008-NB148-8 (Fc fusion)
chain: EVQLVESGGGLVQAGGSLRLSCVVSGSTFSSYAMGWYRQAPGKQRELVAAISSGVSANVADSLKGRFAISRDNAKNAVYLQMNSLKPEDTAVYYCNTLPRSMPYWGKGTLVTVSS[human IgG1 Fc with changes not shown]
notes: as for B1
On to B9, for which the EC50 worked out at 3.6 nM with human EGFR on cells [1] and 28.8 nM with human EGFR on cells [8]. Besides, the “Max MFI” value with human EGFR on cells [1] is 11200; with human EGFR on cells [8], 37700. Moreover, the OD450 was 0.7 in assay [2]; 2.65 in assay [3]; 2.08 in assay [4]; 0.14 in assay [5]; 2.5 in assay [6]; 0.06 in assay [7]. Further, the OD450 in assay [9] amounted to 2.83; in [10], 0.06.

B10: S008-NB148-25 (Fc fusion)
chain: EVQLVESGGGLVQPGGSLRLSCAVSQSISSINAMDWYRQAPGKQRELVAIIFNNGRTNYADSVKGRFTISRDNARNTVYLQMNSLKPEDTAVYYCNIVPPLRNWGQGTQVTVSS[human IgG1 Fc with changes not shown]
notes: as for B1
As for B10, the figures for the EC50 with human EGFR on cells [1] and with human EGFR on cells [8] were 3.32 nM and 10.9 nM, respectively. Also, the results for the “Max MFI” value in the assay with human EGFR on cells [1] and with human EGFR on cells [8] were 15400 and 38500, respectively. The OD450 in assay [2] turned out to be 0.78; in assay [3], 2.7; in [4], 2.26; in assay [5], 0.16; in [6], 2.6; in [7], 0.07. Further, the OD450 in assay [9] was determined as 2.91; in assay [10] it was 0.06.
